This is one part of the list. These are noisy estimates, calculated here from bound and input reads.
The sequences below were run against T1, Pho4 (S. cerevisiae) (UniProt P07270) (assay: relative binding free energy (BET-seq); higher = weaker binding). Conditions: reference: library average.
T1 sequence: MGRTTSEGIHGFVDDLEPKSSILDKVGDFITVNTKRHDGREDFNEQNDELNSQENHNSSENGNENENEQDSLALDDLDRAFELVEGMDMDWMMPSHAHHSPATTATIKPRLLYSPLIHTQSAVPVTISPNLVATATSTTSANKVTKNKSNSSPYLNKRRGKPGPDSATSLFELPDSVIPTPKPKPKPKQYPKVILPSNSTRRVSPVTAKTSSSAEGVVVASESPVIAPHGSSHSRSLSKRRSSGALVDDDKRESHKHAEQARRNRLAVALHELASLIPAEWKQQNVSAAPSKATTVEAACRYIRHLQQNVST

Relative binding free energy, -0.15 kcal/mol:
AGCGGCACGTGTGCGG
TAAGGCACGTGGAGTA
GGGTGCACGTGGTCGC
AGTGCCACGTGGTGAT
GCAGGCACGTGTTAGT

Relative binding free energy, 0.46 kcal/mol:
GGTCTCACGTGAGGAT

Relative binding free energy, -0.26 kcal/mol:
CATAGCACGTGGTTGT

Relative binding free energy, 0.02 kcal/mol:
ATGTGCACGTGGAAGA
GGGTCCACGTGTAATG
ATTGTCACGTGCAGTA
GCTCGCACGTGGTGGC
GTACGCACGTGGTTAG
CTAATCACGTGGGTAG

Relative binding free energy, 0.39 kcal/mol:
GAGGACACGTGAATGT
GGGTTCACGTGATAAG

Relative binding free energy, -0.16 kcal/mol:
CATGCCACGTGGTGTT
AATAGCACGTGCGGTG
TCGTGCACGTGGCGGT
ATAGCCACGTGTTAGG
CTCGGCACGTGGTTGT

Relative binding free energy, -0.04 kcal/mol:
GGTAACACGTGGTCTG
TGTAACACGTGTTGTG
AGGGTCACGTGGGTAC
TAAGTCACGTGGAGGG
TGGTGCACGTGGAGCT
GGTAGCACGTGTCATG
TATGTCACGTGCCGTG
TAGGGCACGTGAGCTA

Relative binding free energy, -0.2 kcal/mol:
TAGCGCACGTGGGTTG
TATTGCACGTGGGCGT
TTAGCCACGTGGCGTG

Relative binding free energy, 0.22 kcal/mol:
TAATTCACGTGCGGTG
ATACTCACGTGTGTGG
GTTGTCACGTGTTTAG
TTTTTCACGTGCATAA

Relative binding free energy, 0.08 kcal/mol:
TTGTACACGTGCTTGT
GTTTGCACGTGATGAT
GTTTGCACGTGTGGGG
TTAGGCACGTGGAATG
TTTAGCACGTGTAAAT
GTTAACACGTGTGCTG
GAGGGCACGTGCTTTG
AGTCGCACGTGCAGTG
TAGCTCACGTGCGGTG
TTATACACGTGTAATG
TAGGGCACGTGAGGCA

Relative binding free energy, 0.45 kcal/mol:
GATTTCACGTGATTTC

Relative binding free energy, 0.31 kcal/mol:
CAACTCACGTGTTGGT
AATTTCACGTGTCTGT
GTGTTCACGTGGACTA

Relative binding free energy, -0.03 kcal/mol:
TAGTGCACGTGGCCGG
TTGTGCACGTGTCGCA
TCGATCACGTGGTAGG
TAGGGCACGTGGATAA
CGTGGCACGTGCAATG
AAGTGCACGTGTTAGG
AGTTGCACGTGCGTTT

Relative binding free energy, -0.09 kcal/mol:
TTGGCCACGTGCGGGC
GTTGCCACGTGGCCGG
CAGGGCACGTGTGCGT
ATTGGCACGTGATAAG
ATCTGCACGTGCGGGG

Relative binding free energy, -0.05 kcal/mol:
TGTGACACGTGGCTGT
GTCTCCACGTGGTGGG

Relative binding free energy, -0.25 kcal/mol:
ATGAGCACGTGCGTTG

Relative binding free energy, -0.11 kcal/mol:
GTGTGCACGTGGCAGG

Relative binding free energy, 0.29 kcal/mol:
GCATTCACGTGAGGTG
GTGTTCACGTGTCGGG
TGGGTCACGTGGAATG
TTTTCCACGTGAGGAG

Relative binding free energy, 0.15 kcal/mol:
TCTTGCACGTGATTAG
ATCTGCACGTGTATAG

Relative binding free energy, -0.12 kcal/mol:
GTGGACACGTGGCTAG
ATGGGCACGTGGCGAG

Relative binding free energy, 0.25 kcal/mol:
AGTTTCACGTGAATAT
GTATTCACGTGTATTG

Relative binding free energy, 0.4 kcal/mol:
TCTTTCACGTGTGGGG

Relative binding free energy, 0.34 kcal/mol:
CGCTTCACGTGTGGAG
GGGACCACGTGATTTG

Relative binding free energy, 0.48 kcal/mol:
GGGGTCACGTGAGAAC

Relative binding free energy, 0.18 kcal/mol:
GGAGTCACGTGTGTCG
AGCTTCACGTGTGTGA
TAAATCACGTGTTTGT
TCGTTCACGTGGAGGT

Relative binding free energy, -0.1 kcal/mol:
GTGAGCACGTGGAGAA

Relative binding free energy, 0.32 kcal/mol:
GTTTTCACGTGGAAGC
AAGTTCACGTGTGGCT

Relative binding free energy, -0.17 kcal/mol:
ATGGGCACGTGGCCAG
AGGTCCACGTGGGGTC
TTGGGCACGTGGGGCT
TAACGCACGTGGGGCT
AATAGCACGTGTTGAG
TGCATCACGTGGGCGG

Relative binding free energy, 0.28 kcal/mol:
GTCTTCACGTGGGAAG
GCAATCACGTGAGGGT
AAATGCACGTGAGATT

Relative binding free energy, -0.13 kcal/mol:
GTGTGCACGTGGCATT
ATGTGCACGTGCTGTA
AATAGCACGTGTAGTT

Relative binding free energy, 0.16 kcal/mol:
TATTTCACGTGGATTC
TGTAACACGTGATTGG
AGTTTCACGTGTCGAA
TTGGGCACGTGAGGAA
TTGGTCACGTGTCAGA

Relative binding free energy, 0.14 kcal/mol:
TTAGTCACGTGCGTGA
GGGCTCACGTGGGTTC
TGTATCACGTGTTAGT
TGGGTCACGTGTACTG
ACTTTCACGTGGGTTG

Relative binding free energy, 0.2 kcal/mol:
ATGGACACGTGAAGGG
TGATTCACGTGGTGCA

Relative binding free energy, 0.21 kcal/mol:
CTTTACACGTGTAGGG
GTTACCACGTGAGGGT

Relative binding free energy, 0.03 kcal/mol:
TGACTCACGTGGGGGG
ATGTCCACGTGTAGTT
GGGTACACGTGCGGGG
ATTGACACGTGTTTGC

Relative binding free energy, 0.37 kcal/mol:
AGTTTCACGTGAGAGA
TTCATCACGTGAGGTT
TAGTGCACGTGAATTT

Relative binding free energy, 0 kcal/mol:
TTAAGCACGTGTTGCC
TGTAGCACGTGTGCAG
AATAGCACGTGTGGTG

Relative binding free energy, 0.12 kcal/mol:
TTTTGCACGTGAGTGG
AGGTCCACGTGCTAGG
AGTTGCACGTGTTACG
GATTACACGTGGTGGT
GGGGACACGTGTGGGA
TAGCGCACGTGAGTAG
TGCTACACGTGCGCGG

Relative binding free energy, 0.06 kcal/mol:
GTTAACACGTGTGCAG
GGAGACACGTGGAGGA
GTATGCACGTGTGTCG
ATATACACGTGGATGA

Relative binding free energy, 0.38 kcal/mol:
GTATTCACGTGAAGTT

Relative binding free energy, -0.28 kcal/mol:
AGGCCCACGTGGGTGG

Relative binding free energy, 0.26 kcal/mol:
TAATGCACGTGAAAGG
AGATTCACGTGAGGCT

Relative binding free energy, 0.24 kcal/mol:
TGATTCACGTGTAGTG
GAGTTCACGTGGGTGG
TTACTCACGTGTTTTT
AGGATCACGTGGCAAG

Relative binding free energy, -0.14 kcal/mol:
AGTTCCACGTGGTGGT
GACGGCACGTGGCTGG
ATAGGCACGTGCCGGG
GTTGGCACGTGGGTCC
TGCAGCACGTGGGATT
TGGGGCACGTGGCGGT
ATAGCCACGTGGTGTG

Relative binding free energy, 0.11 kcal/mol:
GGCTGCACGTGGATGG
TTTAGCACGTGTAATG

Relative binding free energy, 0.13 kcal/mol:
CATTTCACGTGGATTT
TGCATCACGTGTGTGG
AAGGGCACGTGAAATG
GTTTACACGTGGGTTT
ACTTTCACGTGGGTTC
GGTGTCACGTGTTAAG

Relative binding free energy, 0.53 kcal/mol:
TTGGACACGTGAAAAA

Relative binding free energy, 0.09 kcal/mol:
GTATTCACGTGGCGGG
CGGATCACGTGGTGTG
AGGGTCACGTGGCGGC
TCAGTCACGTGTATGA
TTAGTCACGTGGTTTT

Relative binding free energy, -0.06 kcal/mol:
AAAGACACGTGTGTGT
GGCGGCACGTGCAGGG
TTTGGCACGTGTCTAA
GTCGGCACGTGCGCGT
ATGTGCACGTGGGGAA

Relative binding free energy, 0.01 kcal/mol:
TTCGTCACGTGCGGGT
TCTGTCACGTGTAATG
GTTTGCACGTGTCTTT
ATGGTCACGTGGCAGG
TGACTCACGTGGGGCG
ATAATCACGTGGTGGG
ACAGGCACGTGAGGTT

Relative binding free energy, 0.17 kcal/mol:
AGCCGCACGTGAGTGG
CTTCTCACGTGGGTAG
GATGGCACGTGATGGT
ATGGACACGTGACGTG

Relative binding free energy, 0.07 kcal/mol:
GTTCACACGTGGTTGG
TAGAACACGTGTTGTA
ATTTGCACGTGGAAGT
AGTCTCACGTGGGGTG
AATGTCACGTGGGTCG
CCTGACACGTGTGGGT
TACGACACGTGTTGGT
AGCGTCACGTGGTAGC

Relative binding free energy, -0.35 kcal/mol:
AGTGGCACGTGCGTTA
TGACGCACGTGGGTGA

Relative binding free energy, 0.05 kcal/mol:
AGGGTCACGTGTGCGA
TTAGTCACGTGGAGTA
GGCGGCACGTGTTGTT
TGTTGCACGTGTAGGC

Relative binding free energy, -0.07 kcal/mol:
ATGAACACGTGGGGTC
TGGAGCACGTGTCAGG
GTATGCACGTGTGTTC

Relative binding free energy, -0.18 kcal/mol:
TGTACCACGTGGGTAT

Relative binding free energy, 0.23 kcal/mol:
GTATTCACGTGTTTGC

Relative binding free energy, -0.19 kcal/mol:
CTGTACACGTGGGTGA
CAGAGCACGTGGGTGA
GGGGACACGTGGGCCT
ACTAGCACGTGGTGGT

Relative binding free energy, -0.24 kcal/mol:
GTAAGCACGTGCAGGT

Relative binding free energy, 0.04 kcal/mol:
CGATGCACGTGTTAGT
ATTGTCACGTGGTATA

Relative binding free energy, 0.19 kcal/mol:
TATTTCACGTGATAGT
CAGTTCACGTGGGTGT
AAGATCACGTGCGGTG
TATAACACGTGATTTT
ATTTTCACGTGACTGT
TGATACACGTGATGTT
ATTTTCACGTGGTCAT

Relative binding free energy, 0.43 kcal/mol:
TAGTTCACGTGTGAGT

Relative binding free energy, 0.36 kcal/mol:
CAAATCACGTGAGTGT

Relative binding free energy, -0.21 kcal/mol:
TGGGGCACGTGGTCCA
GAACGCACGTGGGGGA
ATGGGCACGTGGGTAA
CTGGCCACGTGTTGGG

Relative binding free energy, -0.02 kcal/mol:
TTGGTCACGTGTCTAA
GAGCGCACGTGGTTGG
ATATACACGTGTCGGT
GTCGGCACGTGGTGAG
TGATGCACGTGTAGGG
TAGTACACGTGCTGTG

Relative binding free energy, 0.1 kcal/mol:
GGTGACACGTGTGGCA
TAGGTCACGTGGTCCG
GCGGTCACGTGGTCTG

Relative binding free energy, -0.27 kcal/mol:
AGTGCCACGTGCGTGG

Relative binding free energy, 0.3 kcal/mol:
ATGTTCACGTGACTGT
TGGCGCACGTGAAGAG

Reference: the BET-seq Pho4 binding data (Le et al. 2018)
